PubChem BioAssay AID1963320 (National Center for Advancing Translational Sciences (NCATS), 2024)
About 560 (43%) of roughly 1,300 compounds were called active. The set was probably picked from earlier hits. Inconclusive means that the source gave no clear call. Such entries were picked first, then a sample of the others. Calls come from the whole dose curve; as a rule, active = well fitted inhibition curve with a large enough effect; inconclusive = small, poorly fitted or top-dose-only effect; inactive = flat fitted curve, though single readings scatter. Where the call is inconclusive, the potency comes from a doubtful curve fit.

biological target: Luciferin 4-monooxygenase (Photinus pyralis) (UniProt P08659); test: Firefly luciferase (FLuc-C-HiBiT) enzymatic inhibition screen - Functional assay; settings: purified FLuc-C-HiBiT enzyme, luciferin luminescence; series mostly up to 32.7 µM
Method in brief: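 Luminescence is read by CCD imager 5-10 min after adding 10 uM D-luciferin (KM) to 10 nM FLuc-C-HiBiT enzyme with 10 uM ATP. Compounds are preincubated with the enzyme for over 30 min at room temperature, protected from light.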
Note: nearly all actives have a fitted effect of over 70% in size.
Potency is the fitted concentration of half-maximal effect; tags give direction and shape of the fitted curve.

UniProt P08659, sequence (P08659 whole entry, looked up): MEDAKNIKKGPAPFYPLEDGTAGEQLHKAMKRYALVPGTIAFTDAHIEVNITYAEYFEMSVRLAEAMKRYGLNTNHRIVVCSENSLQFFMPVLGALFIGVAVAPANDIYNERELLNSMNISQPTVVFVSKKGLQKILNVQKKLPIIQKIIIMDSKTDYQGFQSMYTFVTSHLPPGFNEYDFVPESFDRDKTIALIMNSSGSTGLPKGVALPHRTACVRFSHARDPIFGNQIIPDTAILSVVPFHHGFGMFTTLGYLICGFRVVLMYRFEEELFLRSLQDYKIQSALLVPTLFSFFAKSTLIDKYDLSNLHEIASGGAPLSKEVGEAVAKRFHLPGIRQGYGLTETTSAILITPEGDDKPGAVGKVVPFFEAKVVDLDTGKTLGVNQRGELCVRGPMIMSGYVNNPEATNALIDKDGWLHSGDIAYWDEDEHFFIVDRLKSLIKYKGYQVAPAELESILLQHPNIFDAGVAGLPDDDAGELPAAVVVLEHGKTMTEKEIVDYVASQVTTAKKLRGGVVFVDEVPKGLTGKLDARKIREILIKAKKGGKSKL

| Compound | Potency |
| --- | --- |
| Cc1ccc(-n2ncc3c(N4CCCCCC4)ncnc32)cc1Cl | active: 0.7 µM |
| Nc1ccc(C(=O)N2CCCn3nc(C(=O)Nc4ccccc4)cc3C2)cn1 | inconclusive: 11.1 µM [inhibitor, partial curve] |
| CCOC(=O)C1(C)C=C(Nc2cccc(C(=O)O)c2)C(=O)N1c1ccccc1 (configuration not stated) | inconclusive: 12.4 µM [inhibitor, partial curve] |
| C[C@@H]1C(=O)O[C@H]2[C@H]1CC[C@@]1(C)Cc3sc(Nc4cccnc4)nc3[C@@H](C)[C@H]21 | active: 0.453 µM |
| O=C(Nc1ccccc1-c1nc2ccccc2s1)c1ccccc1F | inactive |
| Cc1ccc(NC(=O)/C=C/c2ccccc2Cl)cc1Cl | inconclusive: 3.51 µM [inhibitor, full curve] |
| CCC(CC)COC(=O)[C@H](C)N[P@](=O)(OC[C@H]1O[C@@](C#N)(c2ccc3c(N)ncnn23)[C@H](O)[C@@H]1O)Oc1ccccc1 | inactive |
| COc1ccc(C(=O)Nc2ccccc2-c2nc3ccccc3s2)cc1OC | inactive |
| COc1ccc(-c2cc3c(cn2)CN(Cc2cccnc2)CCN3)cc1OC | active: 14.3 µM |
| CN(C)c1cccc(C(=O)Nc2ccc3c(N4CCOCC4)ncnc3c2)c1 | inconclusive: 9.89 µM [inhibitor, partial curve] |
| O=C(CCCc1ccccc1)N1CCC2(CC1)CC(O)CCO2 (configuration not stated) | inconclusive: 12.4 µM [inhibitor, partial curve] |
| Fc1ccc(-n2ncc3c(N4CCCCC4)nc(NN4CCOCC4)nc32)cc1 | inactive |
| COc1ccccc1OC(C)C(=O)Nc1cccc(-c2nc3ccccc3s2)c1 (configuration not stated) | inconclusive: 8.81 µM [inhibitor, partial curve] |
| Cn1cc(/C=C2\C(=O)Nc3cccnc32)c2ccccc21 | inconclusive: 9.89 µM [inhibitor, partial curve] |
| Oc1cccc(-c2cc3c(cn2)CN(Cc2cccnc2)CCN3)c1 | inconclusive: 22.7 µM [inhibitor, single point] |
| CCCCC(=O)Nc1cc(-c2nc3ccccc3s2)ccc1C | inactive |
| O=C(O)c1ccc(-c2nnc3ccc(NC(=O)C4CCC4)cn23)cc1 | inconclusive: 11.1 µM [inhibitor, partial curve] |
| CCN1C(=O)CCc2cc(NC(=O)c3ccc(C(C)C)cc3)ccc21 | inconclusive: 9.89 µM [inhibitor, partial curve] |
| CN(C)c1cccc(C(=O)NC2CCN(c3cc(-c4ccc(Cl)cc4)[nH]n3)C2)c1 (configuration not stated) | inconclusive: 11.1 µM [inhibitor, partial curve] |
| CCc1cccc(NCc2ccccc2-c2nnc(-c3ccccc3Cl)o2)c1 | inactive |
| CC(C)c1nc(C2Cc3ccccc3N2C(=O)NC2CCCC2)no1 (configuration not stated) | inconclusive: 14 µM [inhibitor, partial curve] |
| CCOc1ccc(NC(=O)C2CCN(C(=O)c3ncn4c3COC(c3ccccc3)C4)CC2)cc1 (configuration not stated) | active: 7 µM |
| Cc1ccc(-c2cccc(COc3cnc4c(ccn4CC(=O)O)c3)c2)cc1C | inconclusive: 18 µM [inhibitor, partial curve, poor fit] |
| C[C@@H]1C(=O)O[C@H]2[C@H]1CC[C@@]1(C)Cc3sc(NCc4ccccc4)nc3[C@@H](C)[C@H]21 | active: 7.18 µM |

| Compound | Potency |
| --- | --- |
| O=C(Nc1ccc(F)c(F)c1)C1CCN(C(=O)c2ncn3c2COC(c2ccc(F)cc2)C3)CC1 (configuration not stated) | inconclusive: 11.1 µM [inhibitor, partial curve, poor fit] |
| COc1cccc(-c2ccc(-c3nc(C4CCOC4)no3)o2)c1 (configuration not stated) | inconclusive: 9.89 µM [inhibitor, partial curve] |
| Cc1csc(NC(=O)c2nc3c(o2)CCN(Cc2ccccc2F)CC3)n1 | inconclusive: 12.8 µM [inhibitor, partial curve] |
| CN(C1CCc2ccccc2C1)[S+](=O)([O-])c1cccs1 (configuration not stated) | inactive |
| COc1cccc(CC(=O)NCCn2ccn3nc(-c4ccc(C)cc4C)cc3c2=O)c1 | inconclusive: 8.81 µM [inhibitor, partial curve] |
| Fc1ccc(-c2cc3c(cn2)CN(Cc2ccncc2)CCN3)cc1Cl | active: 18 µM |
| O=C(Nc1n[nH]c2cc(-c3ccccc3)ccc12)C1CC1 | inconclusive: 12.4 µM [inhibitor, partial curve] |
| Cc1cc(NCCc2cnccn2)nc(-c2ccccc2O)n1 | inactive |
| COc1cccc(Nc2ncc(-c3ccc(OC)nc3)c3c2OCC3)c1 | inconclusive: 20.2 µM [inhibitor, partial curve] |
| O=C1c2cnc(-c3ccc(F)cc3F)nc2OCCN1CC1CC1 | inconclusive: 18 µM [inhibitor, partial curve] |
| COc1cc(C)ccc1OCc1cc(C(=O)NCc2n[nH]c3c2CCC3)no1 | inconclusive: 12.4 µM [inhibitor, partial curve] |
| CN(C)c1ccc(-c2nc3ccccn3c2Nc2ccc3c(c2)OCCO3)cc1 | active: 11.1 µM |
| CC(=O)Nc1ccc(NC(=O)CCCc2nc(-c3ccc(C(C)(C)C)cc3)no2)cc1 | active: 4.95 µM |
| COCCNC(=O)C1CCN(C(=O)c2nnn3c2COC(c2ccc(C)cc2)C3)CC1 (configuration not stated) | inconclusive: 4.95 µM [inhibitor, partial curve] |
| CCN1c2cc(C(=O)Nc3ccc4c(c3)OCCO4)ccc2C(=O)N2CCCCCC21 (configuration not stated) | inconclusive: 9.89 µM [inhibitor, partial curve] |
| Cc1cc(F)ccc1OC1(C(=O)O)CCN(c2ncnc3nc[nH]c23)CC1 | inactive |
| Oc1ccc(-c2nc3ccccn3c2Nc2ccc3c(c2)OCCO3)cc1 | inconclusive: 17.6 µM [inhibitor, partial curve] |
| OC1CC(c2cc(N3CCc4c(Cl)cccc4C3)ncn2)C1 (configuration not stated) | inconclusive: 9.89 µM [inhibitor, partial curve] |
| Cc1ccc(-c2nc(C(=O)N3CCN(c4ccccc4)CC3)no2)cc1 | inconclusive: 11.1 µM [inhibitor, partial curve] |
| CC(=O)N1CCNc2cc(-c3cccc(F)c3)ncc2C1 | inconclusive: 25.4 µM [inhibitor, partial curve] |
| Cc1ccc(C(=O)Nc2ccc(-c3nc4ccccc4s3)c(O)c2)cc1 | inactive |
| COc1cccc(-n2nnc(-c3nc(-c4ccccc4F)no3)c2C)c1 | active: 5.56 µM |
| COc1ccc(CNC(=O)c2ccc3c(c2)N=C(C)c2c(C)ccc(C)c2S3)cc1 | inactive |
| CC1=C[C@@H](CNC(=O)c2ccncc2)[C@H](C(C)C)C[C@H]1CC(=O)N1CCOCC1 | inactive |

| Compound | Potency |
| --- | --- |
| COc1ccc2cc(C3CN(C(=O)Cc4ccc(O)cc4)CCO3)ccc2c1 (configuration not stated) | inconclusive: 9.89 µM [inhibitor, partial curve] |
| CC(C)(Oc1ccc(-c2nc3cc(Cl)ccc3s2)cc1)C(=O)O | active: 8.81 µM |
| COc1ccc(CN2CCNc3cc(Nc4ccccc4)ncc3C2)cn1 | inconclusive: 18 µM [inhibitor, partial curve] |
| O=C1CC(c2ccccc2)N(C(=O)CNC(=O)Nc2ccc3c(c2)OCCO3)CCCCCN1 (configuration not stated) | inconclusive: 17.6 µM [inhibitor, partial curve] |
| Oc1ccc(-c2nc(C3CC3)nc3c2CCN(Cc2cccc(F)c2)CC3)cc1 | inactive |
| COc1ccc(-n2nc(C)c([C@@H]3C=C[C@@H](NC(=O)Nc4cccc(C#N)c4)C3)c2C)cc1 | inconclusive: 18 µM [inhibitor, partial curve] |
| COc1ccc(-c2nc3ncccc3[nH]2)cc1 | active: 16 µM |
| CCN1CCN(c2csc3ccc(Cl)cc3c2=O)CC1 | inconclusive: 12.4 µM [inhibitor, partial curve] |
| O=C(COC(=O)c1cc(-c2cccs2)nc2ccccc12)c1ccc(Br)cc1 | inactive |
| COc1cccc(CNC(=O)Nc2cccc(-c3ccc(N4CCOCC4)nn3)c2)c1 | active: 2.79 µM |
| Cc1cc(F)ccc1NC(=O)c1csc2c1CCC(C)C2 (configuration not stated) | inconclusive: 2.79 µM [inhibitor, full curve] |
| O=C(Nc1cccc(-c2nc3ccccc3s2)c1)c1cc2ccccc2oc1=O | inactive |
| Nc1nc2c(ncn2COCCO)c(=O)[nH]1 | inactive |
| O=C(CSc1nnc2ccccn12)Nc1cccc(-c2nc3ccccc3s2)c1 | inactive |
| COc1ccc(-c2ccc3c(c2)C(=O)N2CC[C@H](NC(=O)c4cccc(F)c4)[C@H]2C(=O)N3)cc1 | inconclusive: 9.89 µM [inhibitor, partial curve] |
| Cc1nnn2c(C(=O)NC3CC3)cccc12 | inconclusive: 25.4 µM [inhibitor, single point] |
| CCCCNc1nc(N)c2[nH]c(=O)n(Cc3ccc(OCCN(C)C)nc3)c2n1 | inactive |
| COc1ccc(NC(=O)C2CCN(C(=O)c3ncn4c3COC(c3ccccc3)C4)CC2)cc1OC (configuration not stated) | active: 3.51 µM |
| CCc1ccccc1NC(=O)c1nnn(-c2ccc(F)cc2)c1C | inconclusive: 11.1 µM [inhibitor, partial curve] |
| CCOc1cccc2cc(-c3nc(-c4ccccc4C)no3)c(=O)oc12 | inconclusive: 3.13 µM [inhibitor, full curve] |
| Cc1ccc(C2Cn3nnc(C(=O)N4CCC(C(=O)Nc5ccccc5)CC4)c3CO2)cc1 (configuration not stated) | inconclusive: 11.1 µM [inhibitor, partial curve] |
| CN(C)C(=O)c1ccc(-c2cccc(-c3ccn(CC4CC4)n3)c2)o1 | active: 7.85 µM |
| CCOC(=O)C1CCCN(c2ncnc3c2cnn3-c2ccc(C)c(Cl)c2)C1 (configuration not stated) | inactive |
| Cc1c(CCNC(=O)c2ccc(Br)o2)sc2nc(-c3ccc(Cl)cc3)nn12 | inconclusive: 12.4 µM [inhibitor, partial curve] |
